{
  "source": "PubChem BioAssay AID1347120",
  "about": "(National Center for Advancing Translational Sciences (NCATS), 2019)",
  "note": "Out of some 390,000 compounds screened, about 930 (0.24%) were called active. Inconclusive means that the source gave no clear call. Such entries were picked first, then a sample of the others. The call rests on the fitted dose curve; in most records, active means well fitted activation curve with a large enough effect; inconclusive means small, poorly fitted or top-dose-only effect; inactive means no such curve, though single readings can be large or run the other way. Potencies beside an inconclusive call are fits to weak or partial responses and may not hold up. Potency means the concentration at half of the fitted maximal effect; tags describe the fitted curve by direction and shape.",
  "data": [
    {"assay": "qHTS for Suppressors of FUS Proteinopathy: Primary screen using FUS-linked yeast assay; further: nearly all actives have a fitted effect of over 55% in size;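 on growth rescue (activation): plate controls were DMSO vehicle for no effect and reference control for full effect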", "conditions": "S. cerevisiae FUS-expressing, OD600, 24 h; Potency: growth rescue; growth rescue (activation): at 76.6 µM (top of the series)", "outline": "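Read-out: OD at 600 nm after 24hr at 30C, reporting rescue of FUS-induced yeast toxicity. Cells at OD 0.005 in galactose (2%) minimal medium; compounds tested in a dilution series; CP55940 titration from 92uM final as control.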", "values": [
      {"smiles": "CCOc1ccc(Nc2c(S(=O)(=O)c3ccc(C)cc3)cnc3ccccc23)cc1", "Potency": "inconclusive: 28.2 µM [activator, single point]"},
      {"smiles": "Cc1ccc(S(=O)(=O)N2CCC(C(=O)OC(C)C(=O)N(C)c3ccccc3)CC2)cc1C", "note": "(stereo not drawn)", "Potency": "inconclusive: 31.6 µM [activator, single point]"},
      {"smiles": "COc1cccc(C(=O)Nc2ccc3c(c2)CCCN3C(=O)c2cccs2)c1OC", "Potency": "inconclusive: 35.5 µM [activator, single point]"},
      {"smiles": "Cc1ccc(NC(=O)CN2C(=O)C(c3ccccc3)=NC2(C)C)cc1C", "growth rescue (activation)": "inactive: -1.29%"},
      {"smiles": "COC(=O)c1cc(NS(=O)(=O)c2cccc(Cl)c2)ccc1N1CCOCC1", "growth rescue (activation)": "inactive: 12.9%"},
      {"smiles": "Cc1ccc(C2(C)NC(=O)N(CC(=O)N(Cc3ccccc3)C(C)(C)C)C2=O)cc1", "note": "(stereo not drawn)", "Potency": "inconclusive: 50.1 µM [activator, single point]"},
      {"smiles": "CCC(Cc1ccccc1)NC(=O)c1csc2c1CCCCC2", "note": "(stereo not drawn)", "growth rescue (activation)": "inactive: -7.86%"},
      {"smiles": "C[C@@]12C(=O)N(CC3CCCO3)CC(=O)N1[C@H]1c3cc(Cl)ccc3OC[C@@H]1[C@@H]2c1ccccc1", "note": "(stereo partly drawn)", "growth rescue (activation)": "inactive: 34.8%"},
      {"smiles": "CCOC(=O)[C@@]12CCCC=C1N(CCc1ccc(Cl)cc1)C(=O)[C@H]2CC(=O)NCc1ccc(C)o1", "growth rescue (activation)": "inactive: 42.5%"},
      {"smiles": "CC(O)c1nc2ccccc2n1CC(=O)N1CCN(c2ccccc2)CC1", "note": "(stereo not drawn)", "Potency": "inconclusive: 50.1 µM [activator, single point]"},
      {"smiles": "CCc1nc2ccc(C(=O)NCCc3ccc(SC)cc3)cc2nc1CC", "Potency": "inconclusive: 31.6 µM [activator, single point]"},
      {"smiles": "Cc1noc(C)c1CSc1nc2ccccc2n1CCc1ccccc1", "Potency": "inconclusive: 50.1 µM [activator, single point]"},
      {"smiles": "COc1ccccc1C(=O)Nc1ccccc1N1CCN(C(=O)c2ccc(Cl)cc2)CC1", "Potency": "inconclusive: 12.6 µM [activator, partial curve, poor fit]"},
      {"smiles": "COc1ccc(C2CC(c3ccccc3)=NN2C(=O)COC(=O)c2nc3nccc(C)n3n2)cc1", "note": "(stereo not drawn)", "Potency": "inconclusive: 50.1 µM [activator, single point]"},
      {"smiles": "CCN(C(=O)c1cc2c(s1)-c1c(C)cccc1OC2)c1cc(C)ccc1C", "Potency": "inconclusive: 25.1 µM [activator, single point]"},
      {"smiles": "CCOC(=O)c1ccc(N2C(=O)c3n[nH]c(-c4cccs4)c3C2c2ccc(O)c(OC)c2)cc1", "note": "(stereo not drawn)", "Potency": "inconclusive: 50.1 µM [activator, single point]"},
      {"smiles": "CC1(C)Cc2c(c(N3CCOCC3)nc3sc(C#N)c(N)c23)CS1", "growth rescue (activation)": "inactive: -2.83%"},
      {"smiles": "O=C(CN1CCC(NC(=O)Nc2ccc(F)cc2)CC1)Nc1ccccc1[N+](=O)[O-]", "Potency": "inconclusive: 12.6 µM [activator, partial curve, poor fit]"},
      {"smiles": "Cc1ccc(/C=N/NC(=O)c2cccc(NC(=O)c3ccccc3C)c2)o1", "Potency": "inconclusive: 22.4 µM [activator, single point]"},
      {"smiles": "Cc1ccc(NC(=O)CN2CCN(Cc3ccccc3)CC2)c(Br)c1", "growth rescue (activation)": "inactive: -44.1%"},
      {"smiles": "C[C@]1(C(=O)NCCc2c[nH]c3ccccc23)C=C[C@@H](Cc2ccccc2)N1C(=O)c1ccccc1", "Potency": "inconclusive: 25.1 µM [activator, single point]"},
      {"smiles": "O=C(Nc1ccc(F)c(Cl)c1)C1Cc2c(-c3ccc(Cl)cc3)ccnc2O1", "note": "(stereo not drawn)", "Potency": "inconclusive: 31.6 µM [activator, single point]"},
      {"smiles": "COC(=O)[C@]12C[C@H](CC(=O)N3CCN(C(=O)c4ccco4)CC3)C(=O)N(Cc3ccc(Cl)cc3Cl)C1=C[C@H](C(C)C)O[C@@H]2C1CC1", "Potency": "inconclusive: 31.6 µM [activator, single point]"},
      {"smiles": "COc1ccc(N2CCN(C(=O)CSCc3nc(-c4ccccc4Cl)oc3C)CC2)cc1", "Potency": "inconclusive: 14.1 µM [activator, partial curve, poor fit]"},
      {"smiles": "O=C(C[C@H]1C/C=C\\C[C@H](NC(=O)OCC2c3ccccc3-c3ccccc32)C(=O)OC[C@H](Cc2ccccc2)NC1=O)N[C@H](CO)Cc1ccccc1", "Potency": "inconclusive: 11.2 µM [activator, partial curve]"},
      {"smiles": "Cc1cc(O)c(C(c2cccc(F)c2)N2CCC(C)CC2)c(=O)n1Cc1ccco1", "note": "(stereo not drawn)", "growth rescue (activation)": "inactive: 34.6%"},
      {"smiles": "O=C(NCCc1ccc(Cl)cc1)c1cccn1-c1nnc(N2CCCCC2)s1", "Potency": "inconclusive: 25.1 µM [activator, single point]"},
      {"smiles": "CCc1nc2c(OCc3ccc(Cl)cc3)cccn2c1N(C=O)Cc1ccc(OC)cc1", "Potency": "inconclusive: 28.2 µM [activator, partial curve]"},
      {"smiles": "COc1cccc(C(=O)Nc2ccc(C(=O)NCC(C)C)cc2)c1", "Potency": "inconclusive: 50.1 µM [activator, single point]"},
      {"smiles": "COc1cccc(/C=C/C(=O)OCC(=O)NC(=O)NC2CCCC2)c1", "Potency": "inconclusive: 14.1 µM [activator, partial curve, poor fit]"},
      {"smiles": "CCN(CC(=O)Nc1cc(Cl)ccc1C)C(=O)c1ccc(N2CCCC2=O)cc1", "Potency": "inconclusive: 6.31 µM [activator, single point]"},
      {"smiles": "COc1ccc(-c2ccc(CN3C(C(C)C)C(=O)N(Cc4cn(CCC5OCCO5)nn4)CCS3(=O)=O)cc2)cc1OC", "note": "(stereo not drawn)", "Potency": "inconclusive: 31.6 µM [activator, single point]"},
      {"smiles": "CC(Cc1cccs1)NC(=O)Nc1ccccc1", "note": "(stereo not drawn)", "growth rescue (activation)": "inactive: 32.1%"},
      {"smiles": "Cc1ccc(-n2c(SCc3ccccc3F)nc3[nH]ncc3c2=O)cc1C", "Potency": "inconclusive: 50.1 µM [activator, single point]"},
      {"smiles": "Oc1c(C(Nc2nccs2)c2ccc(C(F)(F)F)cc2)ccc2cccnc12", "note": "(stereo not drawn)", "Potency": "inconclusive: 31.6 µM [activator, single point]"},
      {"smiles": "COC(=O)CCn1c(C)cc(C(=O)COc2ccccc2C(N)=O)c1C", "growth rescue (activation)": "inactive: 6.95%"},
      {"smiles": "CC1=CC(=C(C#N)c2nc3ccccc3s2)C=C(C)N1Cc1ccco1", "growth rescue (activation)": "inactive: 7.09%"},
      {"smiles": "COc1ccc(C(=O)NCC(c2cccnc2)N2CCN(c3ccc(F)cc3)CC2)cc1", "note": "(stereo not drawn)", "growth rescue (activation)": "inactive: -1.11%"},
      {"smiles": "Cc1ccc(C(=O)NCC(c2cccs2)S(=O)(=O)c2cccs2)cc1C", "note": "(stereo not drawn)", "Potency": "inconclusive: 31.6 µM [activator, single point]"},
      {"smiles": "CCOC(=O)N1CCN(c2ncnc3c2[nH]c2ccc(F)cc23)CC1", "growth rescue (activation)": "inactive: 34.2%"},
      {"smiles": "CCN(C(=O)c1nn(-c2ccc(OC)c(Cl)c2)c(=O)c2c1c1ccccc1n2C)c1cc(OC)ccc1OC", "growth rescue (activation)": "inactive: -17.5%"},
      {"smiles": "Cc1ccc(S(=O)(=O)N2[C@H](c3ccc(Cl)cc3)CC(=O)[C@@H]3CN(S(=O)(=O)c4ccccc4C)[C@H](c4ccc(Cl)cc4)C[C@@H]32)cc1", "Potency": "inconclusive: 25.1 µM [activator, single point]"},
      {"smiles": "N#Cc1ccc(C(=O)Nc2ccc(Cl)c(-c3nc4cc(Cl)ccc4o3)c2)c(F)c1", "growth rescue (activation)": "inactive: -8.03%"},
      {"smiles": "Cc1oc(-c2ccccc2F)nc1CS(=O)(=O)CC(=O)N1CCN(c2cccc(C(F)(F)F)c2)CC1", "growth rescue (activation)": "inactive: -14.8%"},
      {"smiles": "O=C1C2CC=C(Cl)CC2C(=O)N1CCc1ccccc1", "note": "(stereo not drawn)", "growth rescue (activation)": "inactive: 14.3%"},
      {"smiles": "NCCCNC(=O)c1cc2ccccc2[nH]1", "growth rescue (activation)": "inactive: 6.13%"},
      {"smiles": "C[C@@H]1CN([C@@H](C)CO)C(=O)Cc2cc(NC(=O)Nc3ccc(C(F)(F)F)cc3)ccc2O[C@@H]1CN(C)S(=O)(=O)c1ccc(Cl)cc1", "Potency": "active: 17.8 µM"},
      {"smiles": "CC(C)(C)NS(=O)(=O)c1ccc(NC(=O)C2CC(=O)N(CCc3ccc(F)cc3)C2)cc1", "note": "(stereo not drawn)", "Potency": "inconclusive: 28.2 µM [activator, single point]"},
      {"smiles": "CCOc1ccc(-c2cn(-c3ccc(OC)cc3)c(SCC(=O)Nc3ccccc3Cl)n2)cc1", "growth rescue (activation)": "inactive: 6.75%"},
      {"smiles": "COc1ccc(F)cc1S(=O)(=O)NCCc1csc(-c2ccc(Cl)cc2)n1", "Potency": "inconclusive: 31.6 µM [activator, single point]"},
      {"smiles": "NC(=O)CC(NC(=O)c1ccc(Br)cc1)c1ccc(N2CCN(c3ccccc3)CC2)c([N+](=O)[O-])c1", "note": "(stereo not drawn)", "Potency": "inconclusive: 28.2 µM [activator, single point]"},
      {"smiles": "COc1ccc(C(=O)N2CCN(S(=O)(=O)c3ccc(C)cc3C)CC2)cc1S(=O)(=O)N1CCOCC1", "Potency": "inconclusive: 8.91 µM [activator, partial curve]"},
      {"smiles": "COc1ccc2[nH]c3c(c2c1)CCN1C(=O)N([C@@H](C)C(=O)NC2CCCCC2C)C(=O)[C@]31C", "note": "(stereo partly drawn)", "Potency": "inconclusive: 31.6 µM [activator, single point]"},
      {"smiles": "CC1CCN(C(=O)CSc2c3c(nc4cc(Cl)ccc24)CCCC3)CC1", "Potency": "inconclusive: 39.8 µM [activator, single point]"},
      {"smiles": "O=C1NC[C@@H](CCCCN2C[C@H](Cc3ccc(O)cc3)N(CCc3ccccc3)C(=O)C2=O)N(CCC2CCCCC2)C1=O", "Potency": "inconclusive: 31.6 µM [activator, partial curve, poor fit]"},
      {"smiles": "Cc1ccc(CN(C(=O)c2cc(=O)c3cc(Cl)c(C)cc3o2)C2CCS(=O)(=O)C2)cc1", "note": "(stereo not drawn)", "Potency": "inconclusive: 35.5 µM [activator, single point]"},
      {"smiles": "COc1ccc(C(=O)OCc2ccccc2C#N)cc1S(=O)(=O)N1CCOCC1", "growth rescue (activation)": "inactive: 37.4%"},
      {"smiles": "CCn1c(CC(=O)Nc2cccc(OC)c2)nnc1SCC(=O)N1CCN(c2ccccc2)CC1", "Potency": "inconclusive: 31.6 µM [activator, single point]"},
      {"smiles": "O=[N+]([O-])c1cc([N+](=O)[O-])c2oc(-c3ccccc3)c(Br)c2c1O", "growth rescue (activation)": "inactive: -0.287%"},
      {"smiles": "COc1ccc(CCNC(=O)CN(c2ccc(C)cc2)S(=O)(=O)c2ccc(OC)cc2)cc1", "growth rescue (activation)": "inactive: 0.0548%"},
      {"smiles": "Cc1cc(NC(=O)CSc2nnc(-c3ccco3)n2C)no1", "growth rescue (activation)": "inactive: -20.6%"},
      {"smiles": "CN(C)S(=O)(=O)c1ccc2c(c1)c(=O)c(C(=O)N1CCN(c3cccc(Cl)c3)CC1)cn2C", "Potency": "inconclusive: 2.82 µM [activator, full curve]"},
      {"smiles": "COc1ccc(S(=O)(=O)N2Cc3ccccc3CC2C(=O)Nc2nccs2)cc1", "note": "(stereo not drawn)", "Potency": "inconclusive: 7.08 µM [activator, full curve, poor fit]"}
    ]}
  ]
}
